Assay results: PubChem BioAssay AID588855 (National Center for Advancing Translational Sciences (NCATS), 2011)
Out of some 410,000 compounds screened, about 5,000 (1.2%) were called active. The inconclusive results got no clear call from the source; some entries with a clear call stand among them for comparison. The call rests on the fitted dose curve; in most records, active means well fitted inhibition curve with a large enough effect; inconclusive means small, poorly fitted or top-dose-only effect; inactive means no such curve, though single readings can be large or run the other way. Where the call is inconclusive, the potency comes from a doubtful curve fit.

Assay: qHTS for Inhibitors of TGF-b; further: nearly all actives have a fitted effect of over 65% in size
Settings: HepG2 CAGA-GFP TGF-b/SMAD3 reporter, GFP fluorescence, 18 h, TGF-beta stimulated, 500 pg/mL final; series mostly up to 46.1 µM
Method in brief: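 HEPG2 CAGA-GFP, 1000 cells/well; 2 h settle, 37 C; cpd via pin tool; TGF-b 500 pg/mL final; 18 h, 37 C; GFP imaging ex488/em500-530; %Activity normalised to -TGF-b and +DMSO controls; CRC fit, curve class.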
Potency means the concentration at half of the fitted maximal effect; tags describe the fitted curve by direction and shape.

Compound | Potency
COc1cccc(C2c3cc4c(cc3OC(C)(N3CCCC3)C2C)OCO4)c1O (stereo not given) | inconclusive: 22.4 µM [inhibitor, single point]
O=C(NC1CCCC1)c1ccc2c(c1)N(Cc1ccc(C(F)(F)F)cc1)C(=O)c1ccccc1S2 | inconclusive: 6.31 µM [inhibitor, single point]
CC(C)n1c2ccccc2c2nnc(SCC(=O)Nc3ccccc3C(=O)O)nc21 | inconclusive: 1.26 µM [inhibitor, single point]
CCOC(=O)c1c(CN2CCNCC2)nc2ccc(Cl)cc2c1-c1ccccc1 | active: 15.8 µM
Cc1ccc(OC(C)C(=O)Nc2cc(C)on2)cc1 (stereo not given) | inactive
S=C(NC1CC2CCC1C2)N1CCN(c2cccc(Cl)c2)CC1 (stereo not given) | inconclusive: 17.8 µM [inhibitor, single point]
COc1cc(NC(=S)NCCc2ccccc2)c(OC)cc1NC(=O)C(C)C | inactive
O=C(Cc1ccc(S(=O)(=O)N2CCCCC2)s1)Nc1ccc(F)c(F)c1 | inconclusive: 22.4 µM [inhibitor, single point]
COc1ccc(CC(=O)OCC(=O)Nc2cccnc2Cl)cc1OC | inactive
CC1=C(C(=O)OC2CCCCC2)C(c2ccc(C)o2)C2=C(CC(C)(C)CC2=O)N1 (stereo not given) | inconclusive: 35.5 µM [inhibitor, single point]
CN(Cc1ccccc1)C(=O)CNC(=O)C12CC3CC(CC(C3)C1)C2 | inactive
O=C(CCc1nc2cccnc2n1Cc1cccs1)Nc1cccc(C(F)(F)F)c1 | inconclusive: 14.1 µM [inhibitor, partial curve, poor fit]
O=C(c1cccs1)N(Cc1cccnc1)c1nc2c(Cl)cccc2s1 | active: 17.8 µM
CN(C(=O)c1cccc(NC(=O)Cc2ccc(NC(=O)C3CCN(C(=O)c4ccccc4)CC3)cc2)c1)C1CCCC1 | inactive
O=C(Cn1cnc2c(NCc3ccccc3)ncnc21)NCCCN1CCCC1=O | inactive
O=C1NC(=S)CN1c1ccccc1 | inconclusive: 15.8 µM [inhibitor, single point]
O=C(Nc1cc(S(=O)(=O)N2CCCCC2)ccc1Cl)C1COc2ccccc2O1 (stereo not given) | inconclusive: 22.4 µM [inhibitor, single point]
CCOc1ccc(-c2cnc(NCc3ccc(C(F)(F)F)cc3)n2C)cc1 | inconclusive: 25.1 µM [inhibitor, single point]
C=CCSC1=C(C#N)C(c2ccccc2Cl)C(C(=O)c2cccs2)C(O)(C(F)(F)F)N1 (stereo not given) | inconclusive: 35.5 µM [inhibitor, single point]
CN1CCN(c2ncc3c(n2)CCN(Cc2cc(Br)cs2)C3)CC1 | inactive
